According to PubChem BioAssay AID504845 (National Center for Advancing Translational Sciences (NCATS), 2011):
Values joined by “and” are separate entries in the source; they are usually repeats but may differ in a detail not shown here. Equal entries are not always repeated. In all, about 390,000 compounds went through this assay and about 150 (0.038%) were called active. The inconclusive results got no clear call from the source; some entries with a clear call stand among them for comparison. Calls come from the whole dose curve; as a rule, active = well fitted inhibition curve with a large enough effect; inconclusive = small, poorly fitted or top-dose-only effect; inactive = no such curve, though single readings can be large or run the other way. A potency beside an inconclusive call is a rough fit, not a confirmed value.

The compounds below were run against Regulator of G-protein signaling 4 (Homo sapiens) (UniProt P49798) (assay: Inhibitors of Regulator of G Protein Signaling (RGS) 4: qHTS). Conditions: Transcreener GDP fluorescence polarization, RGS4-accelerated GTP hydrolysis; series mostly up to 114 µM.
UniProt P49798, sequence (P49798 whole entry, looked up): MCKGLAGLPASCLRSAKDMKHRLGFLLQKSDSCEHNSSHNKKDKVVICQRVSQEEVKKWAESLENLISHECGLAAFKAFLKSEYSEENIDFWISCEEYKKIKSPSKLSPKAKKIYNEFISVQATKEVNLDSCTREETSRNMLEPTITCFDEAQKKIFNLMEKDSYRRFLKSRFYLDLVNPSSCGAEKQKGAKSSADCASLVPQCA
In short: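 MLSMR compounds (23 nl, pin-transferred) preincubated 10 min at room temperature with a 500nM (2x) first reagent, then RGS4 at 900nM (2x) plus Transcreener GDP mix added; fluorescence polarization (620/688 nm) read before and after 90 min at 30 °C.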
% is set by controls: 0 for no effect and ±100 for the full control effect; potency is the fitted concentration of half-maximal effect; tags give direction and shape of the fitted curve.
Note: nearly all actives have a fitted effect of over 75% in size.

| SMILES | Potency | activity change, negative = inhibition |
| --- | --- | --- |
| Cc1cc(=O)n(C)c(=O)n1CCCCOc1ccc([N+](=O)[O-])cc1 | inconclusive: 70.8 µM [inhibitor, partial curve, poor fit] |  |
| CC(C)c1ccc(S(=O)(=O)N2CCN(C(=O)c3cc([N+](=O)[O-])ccc3N3CCOCC3)CC2)cc1 | inconclusive: 112 µM [inhibitor, partial curve, poor fit] |  |
| CCCN1CNc2c(c(=O)[nH]c(=S)n2CCc2cc(Cl)cc(Cl)c2)C1 | inactive |  |
| Cc1ccc(/C=C2\SC(N3CCN(C(c4ccccc4)c4ccccc4)CC3)=NC2=O)o1 | inconclusive: 17.8 µM [inhibitor, full curve, poor fit] |  |
| CC(C)(C)NC(=O)C(c1ccc(F)cc1)N(Cc1ccco1)C(=O)c1csnn1 (stereo unspecified) | inactive |  |
| CC(C)(C)NC(=O)C[C@H]1C[C@H](C(=O)N2CCCCC2)[C@@]2(CCc3ccccc3)c3[nH]c4cc(-c5ccco5)ccc4c3CCN2C1=O | inconclusive: 17.8 µM [inhibitor, full curve, poor fit] |  |
| Cc1[nH]c2ccccc2c1C(c1ccccc1)c1ccc(Cl)s1 (stereo unspecified) | inactive |  |
| CCC(C(=O)NC1CCCC1)N(C(=O)Cn1nnc(-c2ccc(C)o2)n1)c1ccc(F)cc1 (stereo unspecified) | inactive |  |
| CCOC(=O)c1nn(-c2ccccc2C)c(=O)c2c(N)scc12 | inconclusive: 39.8 µM [inhibitor, partial curve, poor fit] |  |
| Clc1ccc(OCCCN2CCc3ccccc3C2)c(Br)c1 | inactive |  |
| CCc1cc[n+](C(C(=S)Nc2cccc(C)c2)=C([O-])c2ccc(C)c([N+](=O)[O-])c2)cc1 | inconclusive: 79.4 µM [inhibitor, partial curve, poor fit] |  |
| CNc1nc(-c2ccc([N+](=O)[O-])cc2)cs1 | inconclusive: 89.1 µM [inhibitor, single point] |  |
| CNC(=S)NN=C(C)c1ccc(OC)cc1O | inconclusive: 79.4 µM [inhibitor, partial curve, poor fit] |  |
| Cc1cc(-n2c(C)cc(C(=O)COc3ccc4ccc(=O)oc4c3)c2C)no1 | inconclusive: 79.4 µM [inhibitor, partial curve, poor fit] |  |
| O=C(Nc1ccc(C2=CN(Cc3ccccc3)CCC2=O)cc1)OCc1ccccc1 | inactive |  |
| O=C(NCCN1CCOCC1)N1c2ccccc2Sc2ccccc21 | inactive |  |
| CCCCc1nc(SCCOC)c2c(=O)n(C)c(=O)n(C)c2n1 | inactive |  |
| CCOC(=O)c1ccccc1NC(=O)COC(=O)c1cc([N+](=O)[O-])ccc1N1CCOCC1 | inconclusive: 50.1 µM [inhibitor, partial curve, poor fit] |  |
| O=C(c1cc([N+](=O)[O-])ccc1Cl)N1CCc2ccccc21 | inactive |  |
| C#CCN1C(=O)C(O)(CC(=O)/C=C/c2ccco2)c2ccccc21 (stereo unspecified) | inconclusive: 50.1 µM [inhibitor, partial curve, poor fit] |  |
| CC(C)c1ccc(Nc2nnns2)cc1 | inconclusive: 50.1 µM [inhibitor, partial curve, poor fit] |  |
| CCn1nc(NS(=O)(=O)c2ccc(F)cc2)c2cc3cccc(C)c3nc21 |  | inactive: -24.6% [at 11.4 µM] |

| SMILES | Potency | activity change, negative = inhibition |
| --- | --- | --- |
| CC(=O)n1nc(-c2ccco2)nc1SCc1ccccc1 | inactive |  |
| CCn1nc(C)c(/C=N/NC(=O)Cn2nccc2C)c1C | inconclusive: 89.1 µM [inhibitor, single point] |  |
| Cc1ccc(CNC(=O)Cn2c(=O)c3sccc3n(Cc3ccc([N+](=O)[O-])cc3)c2=O)cc1 | inconclusive: 28.2 µM [inhibitor, full curve, poor fit] |  |
| O=C1/C(=C/c2cccc([N+](=O)[O-])c2)CSc2ccc(Cl)cc21 | inactive |  |
| COc1ccc(Br)cc1C(=O)CCC(=O)OCC(=O)Nc1cc(C(N)=O)cc(C(N)=O)c1 | inactive |  |
| CCOC(=O)c1c(C)n(C)c2ccc(OC)c(NC(=O)CN3CCC4(CC3)OCCO4)c12 | inconclusive: 89.1 µM [inhibitor, single point] |  |
| Cc1ccc(CN(C)C(=O)C2CCC(=O)N(CC3CCCCC3)C2)o1 (stereo unspecified) | inconclusive: 100 µM [inhibitor, single point] |  |
| O=C(COC(=O)c1ccccc1NCCO)NCCc1ccccc1 | inactive |  |
| COc1cc(NC(=O)CC2C(=O)N(c3cccc(C)c3)C(=O)N2Cc2ccco2)cc(OC)c1 (stereo unspecified) | inactive |  |
| C=CCC[C@H](Cc1ccc(F)cc1)C(=O)OC[C@H](Cc1c[nH]c2ccccc12)NC(=O)[C@@H](CC=C)CC(=O)N(CCO)Cc1ccccc1 | inactive |  |
| CN1CCc2c1nc1ccccc1c2N=C1CCCN1Cc1ccccc1 | inconclusive: 44.7 µM [inhibitor, partial curve, poor fit] |  |
| O=C1ON=C(c2ccccc2)/C1=C/c1ccc(O)c(O)c1 | inconclusive: 35.5 µM [inhibitor, partial curve, poor fit] |  |
| Cc1cc(O)c(C(=O)/C=C/c2ccccc2O)c(=O)o1 | inconclusive: 79.4 µM [inhibitor, partial curve, poor fit] |  |
| O=C(O)CC(C(=O)O)N1C(=O)/C(=C/c2ccc(-c3nc4ccccc4s3)o2)SC1=S (stereo unspecified) | inconclusive: 20 µM [inhibitor, full curve, poor fit] |  |
| COc1cc(/C=C/c2cc[n+](C)cc2)ccc1OCC(=O)Nc1ccc(Cl)c(Cl)c1 | inconclusive: 100 µM [inhibitor, partial curve, poor fit] |  |
| Cc1ccc(C)c(S(=O)(=O)N2CCN(C(=O)[C@H](Cc3ccccc3)NC(=O)c3ccco3)CC2)c1 | inactive |  |
| N#C/C(=C/c1ccc(N2CCCCCC2)o1)c1ccc(Cl)cc1 | inconclusive: 44.7 µM [inhibitor, partial curve, poor fit] |  |
| OCCC1CN(CCCc2ccccc2)CCN1CCc1ccccc1 (stereo unspecified) | inactive |  |
| N#CC1(Nc2ccc(Br)cc2)CCCC1 | inactive |  |
| Cc1ccc(Cn2nc(C)c(C(=O)NCC(c3ccc(F)cc3)N3CCOCC3)c2Cl)cc1 (stereo unspecified) | inactive |  |
| O=C(COc1ccccc1Cl)N1N=C(c2cccs2)CC1c1ccco1 (stereo unspecified) | inconclusive: 50.1 µM [inhibitor, partial curve, poor fit] |  |
| CC(C)N1CCc2c(sc(NC(=O)c3ccc4ccccc4c3)c2C(N)=O)C1 | inconclusive: 79.4 µM [inhibitor, partial curve, poor fit] |  |

| SMILES | Potency | activity change, negative = inhibition |
| --- | --- | --- |
| O=C(CSc1nc2scc(-c3ccco3)c2c(=O)n1-c1ccccc1)NCC1CCCO1 (stereo unspecified) | inconclusive: 79.4 µM [inhibitor, partial curve, poor fit] |  |
| Cc1ccc(-c2ccc(C3C(C#N)=C(N)Oc4n[nH]c(C)c43)o2)cc1 (stereo unspecified) | inconclusive: 70.8 µM [inhibitor, partial curve, poor fit] |  |
| CNS(=O)(=O)c1cc(C(=O)O)ccc1OC | inconclusive: 44.7 µM [inhibitor, partial curve, poor fit] |  |
| Cc1cc(C)n2c(Br)c(CN3CCCC(C)C3)nc2n1 (stereo unspecified) | inactive |  |
| CCN(c1ccccc1)S(=O)(=O)c1ccc(NC(=O)c2nc(S(C)(=O)=O)ncc2Cl)cc1 | inconclusive: 20 µM [inhibitor, full curve, poor fit] and inconclusive: 28.2 µM [inhibitor, full curve, poor fit] |  |
| O=C(Nc1ccccc1)c1cc2c(=O)c3ccccc3oc2nc1C(F)(F)F | inactive |  |
| O=C1C(Cl)=C(Nc2ccccc2O)C(=O)N1CCc1ccccc1 | inconclusive: 79.4 µM [inhibitor, partial curve, poor fit] |  |
| COc1ccc(-c2csc(NC(=O)c3ccc(S(=O)(=O)N4CCc5ccccc5C4)cc3)n2)cc1 | inactive |  |
| COc1ccc(C(=O)NCCSC2CCCCC2)cc1 | inactive |  |
| O=C1CSC(c2cn(-c3ccccc3)nc2-c2cc3ccccc3oc2=O)N1Cc1ccccc1 (stereo unspecified) | inactive |  |
| CC(C)NC(=S)NC(c1ccccc1)(c1ccccc1)c1ccccc1 | inconclusive: 89.1 µM [inhibitor, single point] |  |
| COc1ccc(OC)c(CN2CCN(c3ccc(S(=O)(=O)N4CCCC4)cn3)CC2)c1 | inconclusive: 89.1 µM [inhibitor, single point] |  |
| CCOC(=O)c1c(S(=O)(=O)N2CCC(C(=O)NCc3ccccc3Cl)CC2)c(C)n(C)c1C | inactive |  |
| O=C(NCCc1ccc(Cl)cc1)c1ncn[nH]1 | inactive |  |
| CCCN1C(=O)/C(=C\C=C2/Sc3ccccc3N2CCO)SC1=S | inconclusive: 17.8 µM [inhibitor, partial curve, poor fit] |  |
| CCOC(=O)Oc1ccc(/C=C2\N=C(C)OC2=O)cc1 | inconclusive: 112 µM [inhibitor, partial curve, poor fit] |  |
| C/C(=N\NC(=O)CSc1ncccn1)c1ccc2c(c1)OCCO2 | inconclusive: 100 µM [inhibitor, single point] |  |
| Cc1ccc2c(c1)C(c1ccncc1)=NNC(c1ccccc1)=N2 | inconclusive: 28.2 µM [inhibitor, full curve, poor fit] |  |
| O=C(Nc1ccc(N2CCCCC2)c(S(=O)(=O)Nc2ccccc2Cl)c1)c1cccnc1 | inconclusive: 79.4 µM [inhibitor, single point] |  |
| CCCCCCNC(=O)c1cc(-c2ccco2)nc2ccccc12 | inconclusive: 39.8 µM [inhibitor, partial curve, poor fit] |  |
| O=c1cc(CSc2nnnn2-c2ccccc2)nc(Nc2ccc(F)cc2)[nH]1 | inconclusive: 79.4 µM [inhibitor, single point] |  |
| O=C(Nc1ccc(Cl)c(Cl)c1)Nc1ccccc1O | inactive |  |
